Results: PubChem BioAssay AID493208 (National Center for Advancing Translational Sciences (NCATS), 2011)
In all, about 44,000 compounds went through this assay and about 340 (0.77%) were called active. Another 5% or so got no clear call; they are omitted. Calls come from the whole dose curve; as a rule, active = well fitted inhibition curve with a large enough effect; inconclusive = small, poorly fitted or top-dose-only effect; inactive = flat fitted curve, though single readings scatter. Some of the results follow.

Assay: Acumen qHTS Assay for Inhibitors of the mTORC1 Signaling Pathway in MEF (Tsc2-/-, p53-/-) Cells: Sytravon;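 note: plate controls were DMSO for no effect and rapamycin for full effect; nearly all actives have a fitted effect of over 50% in size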
Settings: phospho-rpS6 immunofluorescence/PI, 24 h; series mostly up to 38.3 µM; activity change, negative = inhibition: at the top concentration
In short: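 Readout is phospho-S6 Alexa 488 signal normalized to PI per well, reported as % active cells with thresholds set from rapamycin (7.5 nM) and DMSO controls. Cells: Tsc2-/-, p53-/- MEFs, 24 hrs compound at 37 C; PI cell number serves as viability.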

Activity change, negative = inhibition, inactive:
CCc1cccc(NC(=O)CCc2nc3cccnc3n2Cc2ccc(OC)cc2)c1 -13.3%
CC(=O)N1CCc2cc(S(=O)(=O)NC(Cc3ccccc3)C(=O)Nc3cccc(C)c3)ccc21 (centres undefined) -6.77%
Oc1c(C(c2ccc(F)cc2)N2CCOCC2)sc2nc(-c3ccco3)nn12 (centres undefined) 3.02%
O=C(Cn1ncc2c([nH]c3ccccc32)c1=O)Nc1cccc(C(F)(F)F)c1 0.79%
Cc1cc(C)cc(N2CC(c3nc(-c4cccc(Cl)c4)no3)CC2=O)c1 (centres undefined) -13.5%
COc1ccc(CCNc2nccn(-c3ccc(C)c(C)c3)c2=O)cc1OC -2.65%
CCc1ccc(-n2c(=O)c3c4c(sc3n(Cc3ccc(C)cc3)c2=O)CCC4)cc1 7.58%
Cc1ccccc1CN1c2ccccc2S(=O)(=O)c2ccccc21 -12.5%
COc1ccc(N2CCN(C(CNC(=O)C(=O)NCCc3ccccc3)c3cccnc3)CC2)cc1 (centres undefined) -0.369%
COc1ccc(C)cc1NC(=O)NCc1cccn1Cc1ccccc1 -8.73%
COc1ccccc1NC(=O)CN(C)S(=O)(=O)c1ccc2c(c1)c(=O)n(C)c(=O)n2C -6.15%
O=C(NCc1ccccc1)c1ccc2nc(CCc3ccccc3)oc2c1 -8.4%
Cc1ccc(CCNC(=O)NCc2noc3ccccc23)cc1 -28.6%
COc1ccc(C)cc1NC(=O)CSc1nc2ccccc2nc1N1CCOCC1 0.766%
CC1CCCN(S(=O)(=O)c2ccc3[nH]c(=O)cc(C(=O)NCCc4ccc(Cl)cc4)c3c2)C1 (centres undefined) -6.25%
CCOCCCN(C(=O)Nc1ccc(Cl)cc1)C1CCN(C(C)=O)CC1 5.35%
Cc1c(CNC2CCCCCC2)c(C(=O)O)c(C)n1Cc1ccc(F)cc1Cl -2.6%
O=C(COc1ccc(Cl)cc1)Nc1nnc2n1CCS2 2.91%
COc1cc(OC)cc(-c2nc(-c3cccc(C)c3)no2)c1 -3.02%
CC(C)c1ccc(NC(=O)c2ccc(F)c(S(=O)(=O)N3CCCCCC3)c2)cc1 -3.38%
COc1ccc(S(=O)(=O)NCCc2csc3nc(-c4ccc(OC)c(OC)c4)nn23)cc1C 3.94%
O=C1CCSc2ccc(S(=O)(=O)Nc3ccc(Cl)c(C(F)(F)F)c3)cc2N1 -0.128%
CCCCn1c(=O)c2oc3ccccc3c2n(CC(=O)Nc2cccc(Cl)c2C)c1=O 4.37%
CC(C)(C)c1ccc(C(=O)Nc2cc(-c3nc4ccccc4o3)ccc2Cl)cc1 11.3%
CCc1ccccc1NC(=O)c1ccc2c(c1)CCN2S(C)(=O)=O 2.33%
CCc1ccccc1NC(=O)C1CCN(S(=O)(=O)c2ccc3[nH]c(=O)ccc3c2)CC1 1.41%
Cc1noc(C)c1S(=O)(=O)N1CCC(C(=O)Nc2ccc(Br)cc2)CC1 -12.7%
COc1ccc(Cc2nc3ccc(C(=O)NCc4ccc(OC)cc4OC)cc3o2)cc1 -0.814%
COc1ccc(CNC(=O)c2nc(Cn3nc(C)c(Br)c3C)no2)cc1OC 0.455%
COc1cc(NC(=O)c2sc3nc4n(c(=O)c3c2C)CCCCC4)cc(OC)c1OC -7.67%
COc1ccc(CCNC(=O)C(=O)Nc2ccc(C)cc2)cc1OC -0.694%
COc1ccc(N2CCN(S(=O)(=O)c3c(C)[nH]c(=O)[nH]c3=O)CC2)cc1 -4.36%
CCN(C(=O)c1cc2cc3ccc(OC)cc3nc2o1)c1cccc(C)c1 -4.71%
Cc1ccc(C)c(NC(=O)CSc2nc(-c3ccccc3)cc(=O)[nH]2)c1 5.2%
COc1ccc(-c2nc(C(=O)Nc3ccc(C(C)=O)cc3)nn2-c2cccc(Cl)c2)cc1 -6.25%
CC(=O)c1ccc(Oc2nc(C)nc3c2oc2ccccc23)cc1 0.624%
COc1ccc(CN(Cc2ccco2)c2cnc(S(C)(=O)=O)nc2C(=O)Nc2ccc(F)cc2)cc1 0.0116%
COc1ccc(OC)c(-c2csc(-c3c(N)c(C(=O)c4ccccc4)n4ccccc34)n2)c1 1.14%
CCCCOc1ccc(CNC(=O)C2COc3ccc(OC)cc3C2)cc1 (centres undefined) -7.16%
Cn1c(=O)n(C/C=C/c2ccccc2)c(=O)c2c1nc1n2CCN1c1ccccc1 -10.5%
COc1ccc(S(=O)(=O)N(CC(=O)Nc2cccc(C(F)(F)F)c2)c2ccc(C)cc2)cc1 7.94%
COc1ccc(-n2c(=O)c3c(c4cc(OC)ccc4n3C)n(Cc3cc(C)ccc3C)c2=O)cc1 -4.65%
CCOc1ccc(C(=O)c2cn(CC(=O)Nc3ccc4c(c3)OCO4)c3ccc(OCC)cc3c2=O)cc1 4.5%
O=C(Cn1ncn2nc(-c3cccs3)cc2c1=O)NCc1cccc(Br)c1 4.21%
COC(=O)c1cccnc1-n1c(=O)c2cccnc2n(CC(=O)Nc2c(C)cc(C)cc2C)c1=O -1.46%
Cc1ccc(NC(=O)CN2C(=O)COc3ccc(S(=O)(=O)N4CCCCC4)cc32)cc1N(C)C -4.9%
Cc1cccc(CNC(=O)c2ccc(NC(=O)N3CC(C)Sc4ccccc43)cc2)c1 (centres undefined) -0.979%
CC(C)CN(CCNC(=O)CN1C(=O)CSc2ccc(S(=O)(=O)N3CCOCC3)cc21)CC(C)C 5.09%
Cc1ccc(NC(=O)Cn2c(=O)n(-c3ccccc3)c(=O)c3ccc(C(=O)NCc4ccc5c(c4)OCO5)cc32)c(C)c1 -27.5%
O=C(/C=C\c1ccc2c(c1)OCO2)NC1CC(=O)N(c2cccc(F)c2)C1 (centres undefined) -2.81%
O=C(Nc1c(-c2ccc(F)cc2)nc2ccccn12)c1ccccc1F 0.379%
CCOC(=O)c1cccc(NC(=O)c2ccc3nc(Cc4ccccc4)oc3c2)c1 -3.06%
Cc1ccc(-n2c3c(c(=O)[nH]c2=O)C(NC(=O)c2ccccc2C)(C(F)(F)F)C(=O)N3)cc1 (centres undefined) 6.28%
COc1cccc(/C=C/c2onc(C)c2S(=O)(=O)N2CCC(C(=O)N3CCC(C)CC3)CC2)c1 -12.3%
Cc1cc2ccccc2n1-c1ccc(C(=O)N2CCC(C(=O)NCc3ccccc3Cl)CC2)s1 -1.48%
COc1ccccc1N1CCN(C(=O)CSc2n[nH]c(-c3ccccc3)n2)CC1 4%
CC(CNC(=O)Cc1ccc(NC(=O)N2CCSc3ncccc32)cc1)c1ccccc1 (centres undefined) 1.66%
Cc1ccccc1NCc1cccn1-c1nnc(N2CCC(C)CC2)s1 -1.93%
COc1ccc(-c2cn3c(n2)sc2cc(C(=O)Nc4cccc(OC)c4)ccc23)cc1 3.67%
CCOC(=O)C1=C(CN2CCN(c3ccccc3F)CC2)NC(=O)NC1c1ccc(Cl)cc1 (centres undefined) -0.358%
Cc1ccc(CNC(=O)C2CCN(S(=O)(=O)c3cc(-c4noc(C)n4)ccc3C)CC2)cc1 -0.866%
CCOc1ccc(NC(=O)CC2C(=O)N(c3ccccc3)C(=O)N2Cc2ccc3c(c2)OCO3)cc1 (centres undefined) -2.51%
Cc1nc2c(-c3ccccc3)c(C)nn2c(C)c1CCC(=O)NCc1ccc(F)cc1 -9.58%
Cc1c(Cl)cccc1-n1nc(C)c2c(C(=O)NCc3ccccc3)cc(C3CC3)nc21 2.87%
Cn1c(=O)oc2cc(S(=O)(=O)Nc3ccccc3O)ccc21 -13.8%
CCOc1ccc(CCNC(=O)c2cc3c(s2)-c2ccccc2OC3)cc1OCC 0.706%
Cc1ccc(-c2cc(NC(=O)COc3ccc(Cl)cc3C)on2)cc1 0.524%
COc1ccc(-c2cc(C(F)(F)F)nc(SCC(=O)N3CCC(C)CC3)n2)cc1 -1.95%
O=C(NCc1ccc(Cl)cc1)C1CCN(S(=O)(=O)Cc2ccccc2)CC1 5.13%
CCCC(CCC)C(=O)Nc1cc(-c2cn3cccnc3n2)ccc1OC -1.41%
O=c1c(-c2ccc(Cl)cc2)c(C(F)(F)F)oc2c(CN3CCCCC3)c(O)ccc12 2.23%
CCc1ccc(N2C(=O)CSC23C(=O)N(Cc2ccc(C)cc2)c2ccccc23)cc1 (centres undefined) -7.24%
COc1ccc(Cn2cc(C(=O)c3ccc(C)cc3)c(=O)c3cc(OC)c(OC)cc32)cc1 -9.14%
COc1ccc(S(=O)(=O)c2c(C)c(NS(=O)(=O)c3ccccc3)cc(C)c2O)cc1 -3.89%
Cc1oc(-c2cccc(Cl)c2)nc1CN1CCC(C(=O)NCCCN2CCN(c3ccc(F)cc3)CC2)CC1 0.0888%
O=C(CSc1nc2c(c(=O)[nH]1)CCC2)Nc1ccccc1C(F)(F)F 0.464%
O=C(c1ccc2c(c1)CCCC2)N1CCN(c2nc3c(F)cccc3s2)CC1 5.27%
COc1cc(C(c2c(C)[nH][nH]c2=O)c2c(C)[nH][nH]c2=O)ccc1OC(=O)c1cccc(C)c1 1.11%
CCn1cc(C(=O)NCc2ccccc2)c(=O)c2cc(S(=O)(=O)N3CCc4ccccc4C3)ccc21 -13.5%
CCOC(=O)C1CCCCN1S(=O)(=O)c1csc(C(N)=O)c1 (centres undefined) -1.42%
Cc1ccc(C2=CC(c3ccccc3F)n3c(nc4ccccc43)N2)cc1C (centres undefined) -0.749%
CN(C)c1ccc(-n2c(CCC(=O)O)ccc2-c2ccccc2)cc1 -3.22%
COc1ccc(CC(=O)NCc2ccc3c(c2)CCN3C(=O)c2ccccc2)cc1OC 0.892%
COc1ccc(C2=NC(c3ccncc3)=Nc3ccc(Br)cc3N2)cc1 3.01%
CCOC(=O)C1=C(CN2CCCCC2)NC(=O)NC1c1cc(C)ccc1C (centres undefined) 3.67%
CCn1cc(C(=O)N2CCN(c3ccc(F)cc3)CC2)c(=O)c2cc(S(=O)(=O)N(C)C3CCCCC3)ccc21 -8.16%
CCc1cccc(NC(=O)C2CCCN(S(=O)(=O)c3cccs3)C2)c1 (centres undefined) -21.2%
CC(C)(C)c1ccc(OCCn2cc(C(=O)c3ccco3)c3ccccc32)cc1 0.533%
COc1ccccc1N1CCN(C(CNC(=O)C(=O)NCc2ccc(C)cc2)c2cccnc2)CC1 (centres undefined) -0.496%
Cc1cccc(-c2nc3c(c(SCc4ccccc4Cl)n2)Cc2c(CO)cnc(C)c2O3)c1 5.16%
COc1cc(Cl)c(C)cc1NC(=O)c1cc2c(Cl)nc3ccc(C)cc3c2s1 0.31%
CCOc1ccccc1NC(=O)c1c(NC(=O)C(C)Oc2ccc(Cl)cc2)sc2c1CCCCC2 (centres undefined) -9%
Cc1ccc(NS(=O)(=O)c2ccc3c(c2)CC(C)N3C(=O)C2CCC2)cc1Cl (centres undefined) -0.173%
CC(C)CC1N=C2c3ccccc3N=C(SCC(=O)NCCc3ccc(Cl)cc3)N2C1=O (centres undefined) 0.72%
